# Measured values reported in PubChem BioAssay (Tox21).
# Several values for one entry are separate records, joined by “and”; a condition that tells them apart may be missing. Equal values may be shown once. The inconclusive results got no clear call from the source; some entries with a clear call stand among them for comparison. For some of these results: Potencies of inconclusive entries are left out as doubtful fits. More than one record can exist for a structure, and the calls need not agree. Activity calls are given as the source filed them. Unless noted, calls follow the shape of the dose curve; as a rule, active = well fitted curve in the direction sought with a large enough effect in the repeat runs; inconclusive = weak or mixed curves; inactive = no such curve, though single readings can be large; an effect the other way counts as inactive or inconclusive.
# Columns and labels:
# [1] = qHTS assay to identify small molecule antagonists of the sonic hedgehog signaling (Shh) pathway (AID 1259369; calls by dose curve; also: nearly all actives have a fitted effect of over 45% in size; also: potency is read from the fitted curve at half-maximal effect; as to activity change, negative = inhibition: % is scaled to controls: 0 for no effect and ±100 for the full control effect)
# Procedure, shortened: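 Cells are plated and held 4hr at 37 C, compounds (DMSO) are pinned in, conditioned medium is added to stimulate the pathway, and after 24hr luciferase reagent is added for 30min before luminescence is read.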
# [2] = qHTS assay to identify small molecule agonists of the estrogen receptor beta (ER-beta) signaling pathway - cell viability counter screen (AID 1259380); also: nearly all actives have a fitted effect of over 30% in size; also: potency is read from the fitted curve at half-maximal effect
# Procedure, shortened: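 Cytotoxicity is measured in parallel with the reporter screen: after 16 hr compound exposure at 37C and a 2 hr LiveBLAzer step, CellTiter-Glo is added to the same ER-beta-UAS-bla HEK293T wells and luminescence read after 30 min.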
# [3] = biological target: Estrogen receptor (Homo sapiens) (UniProt P03372); assay: qHTS assay to identify small molecule agonists of the estrogen receptor alpha (ER-alpha) signaling pathway in the presence of an antagonist (AID 1259383; calls by dose curve; also: top concentration of the series differs between compounds; % is scaled to controls: 0 for no effect and ±100 for the full control effect; nearly all actives have a fitted effect of over 15% in size)
# Chain of UniProt P03372 (P03372 whole entry, looked up): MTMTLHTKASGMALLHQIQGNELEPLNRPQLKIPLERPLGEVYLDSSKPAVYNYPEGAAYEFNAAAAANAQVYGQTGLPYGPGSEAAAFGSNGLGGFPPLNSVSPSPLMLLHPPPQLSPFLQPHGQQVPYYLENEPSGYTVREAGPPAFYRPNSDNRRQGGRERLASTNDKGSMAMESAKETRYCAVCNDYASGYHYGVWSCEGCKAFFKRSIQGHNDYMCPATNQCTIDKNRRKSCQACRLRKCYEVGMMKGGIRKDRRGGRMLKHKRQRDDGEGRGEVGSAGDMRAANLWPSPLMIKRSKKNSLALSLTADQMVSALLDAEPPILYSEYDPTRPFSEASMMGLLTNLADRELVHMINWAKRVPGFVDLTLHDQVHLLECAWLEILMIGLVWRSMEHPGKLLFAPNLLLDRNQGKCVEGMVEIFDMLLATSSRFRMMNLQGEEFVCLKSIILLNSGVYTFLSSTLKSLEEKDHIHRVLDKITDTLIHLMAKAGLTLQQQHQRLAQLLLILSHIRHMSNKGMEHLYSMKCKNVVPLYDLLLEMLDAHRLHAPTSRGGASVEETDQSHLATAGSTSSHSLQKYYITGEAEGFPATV
# Procedure, shortened: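 Agonist-mode confirmation in the presence of the ER antagonist ICI-182,780 at 10.0nM final. Breast-derived VM7Luc4E2 reporter cells were exposed to compounds for 22hr, and ERE-driven luciferase was quantified by luminescence.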
# [4] = biological target: Thyrotropin receptor (Homo sapiens) (UniProt P16473); assay: qHTS assay to identify small molecule antagonists of the thyroid stimulating hormone receptor (TSHR) signaling pathway (AID 1259385; calls by dose curve; also: nearly all actives have a fitted effect of over 20% in size; also: potency is read from the fitted curve at half-maximal effect; as to activity change, negative = inhibition: % is scaled to controls: 0 for no effect and ±100 for the full control effect); conditions: TSHR-HEK293 cAMP HTRF, TSH-stimulated antagonist mode; activity change, negative = inhibition: at 92.4 µM (top of the series) unless noted
# Chain of UniProt P16473 (P16473 whole entry, looked up): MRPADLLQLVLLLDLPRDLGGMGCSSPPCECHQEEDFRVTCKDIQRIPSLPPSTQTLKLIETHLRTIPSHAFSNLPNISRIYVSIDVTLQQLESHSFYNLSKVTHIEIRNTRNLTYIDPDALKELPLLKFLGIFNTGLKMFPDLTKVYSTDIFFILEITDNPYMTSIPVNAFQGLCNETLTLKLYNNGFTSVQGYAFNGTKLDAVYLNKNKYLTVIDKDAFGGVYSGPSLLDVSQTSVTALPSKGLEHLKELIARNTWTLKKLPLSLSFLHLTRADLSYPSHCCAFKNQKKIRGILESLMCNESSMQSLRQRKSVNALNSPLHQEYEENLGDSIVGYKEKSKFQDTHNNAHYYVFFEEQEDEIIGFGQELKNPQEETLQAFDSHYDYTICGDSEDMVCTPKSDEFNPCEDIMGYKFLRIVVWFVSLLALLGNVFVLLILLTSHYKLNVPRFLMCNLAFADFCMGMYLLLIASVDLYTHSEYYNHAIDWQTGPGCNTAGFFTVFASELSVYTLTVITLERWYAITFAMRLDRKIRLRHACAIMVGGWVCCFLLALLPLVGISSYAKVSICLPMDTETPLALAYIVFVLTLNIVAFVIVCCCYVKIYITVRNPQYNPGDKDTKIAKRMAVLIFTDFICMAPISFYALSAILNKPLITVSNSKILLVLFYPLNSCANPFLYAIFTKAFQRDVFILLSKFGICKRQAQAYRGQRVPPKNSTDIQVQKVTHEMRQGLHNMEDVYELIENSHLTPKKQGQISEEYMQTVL
# Procedure, shortened: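 TSHR-HEK293 cells (800/well) plated 18 h, then compounds with Ro20-1724 and TSH at 1.5 ng/mL final, 30 min at room temperature. cAMP quantified by HTRF (cAMP-d2/anti-cAMP-cryptate, 1 h); 15 concentrations in triplicate.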
# [5] = biological target: Progesterone receptor (Homo sapiens) (UniProt P06401); assay: qHTS assay to identify small molecule antagonists of the progesterone receptor (PR) signaling pathway (AID 1346795; active = well fitted inhibition curve with a large enough effect in the signal ratio in the repeat runs, not every such curve was filed as active; inconclusive = weak or mixed curves; the % refers to the signal ratio; also: potency is read from the fitted curve at half-maximal effect; as to activity change, negative = inhibition: % is scaled to controls: 0 for no effect and ±100 for the full control effect); conditions: PR-UAS-bla HEK293T, beta-lactamase FRET ratio, 16 h; activity change, negative = inhibition: at 92.4 µM (top of the series) unless noted
# Chain of UniProt P06401 (P06401 whole entry, looked up): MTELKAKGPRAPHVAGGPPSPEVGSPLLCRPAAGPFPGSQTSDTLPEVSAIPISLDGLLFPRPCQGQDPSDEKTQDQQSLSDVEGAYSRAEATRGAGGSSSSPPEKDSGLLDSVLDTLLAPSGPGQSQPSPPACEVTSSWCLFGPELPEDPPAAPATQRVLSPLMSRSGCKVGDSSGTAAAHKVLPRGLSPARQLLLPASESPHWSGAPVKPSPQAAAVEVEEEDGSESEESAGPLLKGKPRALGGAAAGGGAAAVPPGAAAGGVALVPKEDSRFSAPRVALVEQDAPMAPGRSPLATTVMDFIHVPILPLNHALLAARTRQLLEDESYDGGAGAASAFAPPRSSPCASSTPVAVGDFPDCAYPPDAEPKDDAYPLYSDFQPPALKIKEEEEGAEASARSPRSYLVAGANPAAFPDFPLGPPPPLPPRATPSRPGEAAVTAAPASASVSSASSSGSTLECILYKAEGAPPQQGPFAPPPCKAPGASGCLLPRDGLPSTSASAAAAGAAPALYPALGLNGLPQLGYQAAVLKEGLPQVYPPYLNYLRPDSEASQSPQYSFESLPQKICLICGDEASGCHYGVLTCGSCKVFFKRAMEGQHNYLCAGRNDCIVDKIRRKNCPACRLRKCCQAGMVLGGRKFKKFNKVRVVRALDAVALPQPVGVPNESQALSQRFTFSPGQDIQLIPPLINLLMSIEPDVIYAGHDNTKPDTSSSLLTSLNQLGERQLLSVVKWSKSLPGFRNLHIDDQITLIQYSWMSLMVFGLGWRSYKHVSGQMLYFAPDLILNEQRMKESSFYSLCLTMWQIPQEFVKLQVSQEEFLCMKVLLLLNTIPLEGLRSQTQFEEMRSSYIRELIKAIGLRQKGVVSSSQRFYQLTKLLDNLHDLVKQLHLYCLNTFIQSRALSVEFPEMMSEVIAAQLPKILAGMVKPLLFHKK
# Procedure, shortened: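 PR-UAS-bla HEK293T cells with beta-lactamase reporter under UAS control, in 2% charcoal-stripped FBS, treated with compounds plus 1 nM promegestone (R5020, final) for 16 hr at 37C. Read-out: FRET beta-lactamase substrate fluorescence after 2 hr at room temperature.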
# [6] = qHTS assay to identify small molecule agonists of the androgen receptor (AR) signaling pathway in the presence of an antagonist - cell viability counter screen (AID 1259379); also: nearly all actives have a fitted effect of over 25% in size; also: potency is read from the fitted curve at half-maximal effect
# Procedure, shortened: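 Cytotoxicity is assessed by CellTiter-Fluor in MDA-kb2 cells carrying an MMTV-driven luciferase reporter. Cells receive 3.0uM nilutamide plus compounds at 15 concentrations and incubate 16 hr at 37C without CO2 before fluorescence reading.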
# [7] = qHTS assay to identify small molecule agonists of the TGF-beta/Smad signaling pathway (AID 1346859; active = well fitted activation curve with a large enough effect in the signal ratio in the repeat runs, not every such curve was filed as active; inconclusive = weak or mixed curves; the % refers to the signal ratio; also: % is scaled to controls: 0 for no effect and ±100 for the full control effect); conditions: SBE-bla HEK293T, TGF-beta/Smad beta-lactamase reporter, 5 h; activation: at 76.8 µM (top of the series)
# Procedure, shortened: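 SBE-bla HEK293T cells plated overnight, then compound exposure for 5 h at 37 C. Beta-lactamase reporter read with LiveBLAzer B/G FRET substrate after 2 h at room temperature, fluorescence at 405 nm excitation, 460/530 nm emission.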
# [8] = qHTS assay to identify small molecule agonists of the estrogen receptor alpha (ER-alpha) signaling pathway in the presence of an antagonist - cell viability counter screen (AID 1259386);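 also: cells exposed to compounds for 22 h at 37 °C before the viability read; nearly all actives have a fitted effect of over 30% in size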; also: potency is read from the fitted curve at half-maximal effect
# Procedure, shortened: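 Cytotoxicity was measured in parallel with the ERE-luciferase agonist screen, in the same wells. The cells were VM7Luc4E2, which endogenously express ER-alpha, and treatment was with compounds plus 10.0nM ICI-182,780 for 22hr.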
# [9] = qHTS assay to identify small molecule antagonists of the estrogen receptor beta (ER-beta) signaling pathway - cell viability counter screen (AID 1259382); also: potency is read from the fitted curve at half-maximal effect; nearly all actives have a fitted effect of over 55% in size
# Procedure, shortened: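 Cytotoxicity counter screen multiplexed with the beta-lactamase antagonist assay: GripTite HEK293T ER-beta-bla cells were treated 16 hr with test chemicals in the presence of 1nM 17-beta-estradiol, and viability was measured by CellTiter-Glo.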
# [10] = qHTS assay to identify small molecule antagonists of the progesterone receptor (PR) signaling pathway - cell viability counter screen (AID 1346798); also: potency is read from the fitted curve at half-maximal effect; nearly all actives have a fitted effect of over 50% in size
# Procedure, shortened: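 PR-UAS-bla HEK293T cells, 3,000/well in 2% charcoal-stripped FBS medium, dosed with compounds plus R5020 agonist and incubated 16 h at 37C. Viability then measured in the same wells by CellTiter-Glo luminescence after 30 min at RT.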
# [11] = qHTS assay to identify small molecule agonists of the progesterone receptor (PR) signaling pathway - cell viability counter screen (AID 1346799; calls by dose curve; also: nearly all actives have a fitted effect of over 45% in size; also: potency is read from the fitted curve at half-maximal effect)
# Procedure, shortened: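 Counter screen in the PR-UAS-bla HEK293T wells (2% charcoal-stripped FBS, 16 h compound exposure at 37 C) after the bla read. CellTiter-Glo added, 30 min at room temperature, luminescence read as cell viability.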
# [12] = qHTS assay to identify small molecule antagonists of the TGF-beta/Smad signaling pathway - cell viability counter screen (AID 1346824); also: potency is read from the fitted curve at half-maximal effect; nearly all actives have a fitted effect of over 50% in size
# Procedure, shortened: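 SBE-bla HEK 293T cells, incubated overnight, then compound plus 0.25 ng/mL TGF-beta1 (stock added) for 5 hr at 37 C. Viability was read in the same wells by CellTiter-Glo luminescence after 30 min at room temperature.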
# [13] = biological target: Progesterone receptor (Homo sapiens) (UniProt P06401); assay: qHTS assay to identify small molecule agonists of the progesterone receptor (PR) signaling pathway (AID 1346784; calls by dose curve; also: potency is read from the fitted curve at half-maximal effect; nearly all actives have a fitted effect of over 30% in size); conditions: PR-UAS-bla HEK293T, beta-lactamase FRET ratio, 16 h; activation: at 92.4 µM (top of the series) unless noted
# Procedure, shortened: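 PR-UAS-bla HEK 293T cells (beta-lactamase reporter under UAS) in 2% charcoal-stripped FBS, dosed with 23 nL compound after 6 hr, incubated 16hr at 37C. LiveBLAzer B/G FRET substrate added, fluorescence read after 2 hours.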
# [14] = qHTS assay to identify small molecule agonists of the TGF-beta/Smad signaling pathway - cell viability counter screen (AID 1346829); also: top concentration of the series differs between compounds; % is scaled to controls: 0 for no effect and ±100 for the full control effect; nearly all actives have a fitted effect of over 45% in size
# Procedure, shortened: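 SBE-bla HEK 293T cells plated overnight, compound exposure 5 hr at 37 C. Viability read in the same wells by CellTiter-Glo luminescence after 30 min at room temperature, following the beta-lactamase read.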
# Tags tell the direction and shape of the fitted curve or compound fluorescence and quenching.
smiles,measurement,setting,value
CC(O)CC(C)(C)O (configuration not stated),Potency,[1],inactive
same,Potency,[2],inactive
C[C@]12C(=O)OC(=O)[C@H]1[C@H]1C=C[C@@H]2C1,Potency,[1],"inconclusive [inhibitor, full curve, poor fit]"
same,Potency,[2],inactive
same,Potency,[3],inactive
same,Potency,[4],"inconclusive [rising, full curve, poor fit]"
same,Potency,[5],inactive
CCOCCOCCOCCO,Potency,[1],inactive
same,Potency,[2],inactive
Cc1ccc(Cl)cc1Cl,Potency,[1],inactive
same,Potency,[6],inactive
same,Potency,[7],inactive
C[N+]1(CC2COC(c3ccccc3)(C3CCCCC3)O2)CCCCC1 (configuration not stated),Potency,[1],"inconclusive [inhibitor, full curve]"
same,Potency,[6],inconclusive [cytotoxic]
same,Potency,[4],inactive
same,Potency,[8],inactive
C=Cc1ccc(O)c(OC)c1,Potency,[1],active: 13.7 µM
same,Potency,[2],"inconclusive [cytotoxic, single point]"
same,Potency,[9],"inconclusive [cytotoxic, partial curve, poor fit]"
same,Potency,[5],"inconclusive [falling, single point]"
same,Potency,[10],"inconclusive [cytotoxic, single point]"
same,Potency,[11],inactive
COc1ccc(CN(CCN(C)C)c2ccccn2)cc1,Potency,[1],inconclusive [inhibitor]
same,Potency,[2],"inconclusive [cytotoxic, single point]"
same,Potency,[9],"inconclusive [cytotoxic, partial curve]"
same,Potency,[5],inactive
same,Potency,[10],"inconclusive [cytotoxic, partial curve]"
same,Potency,[11],active: 42.8 µM and active: 28.2 µM
same,Potency,[12],"inconclusive [cytotoxic, single point]"
CCCc1nn(C)c2c(=O)[nH]c(-c3cc(S(=O)(=O)N4CCN(C)CC4)ccc3OCC)nc12,Potency,[1],"inconclusive [inhibitor, full curve]"
same,Potency,[2],"inconclusive [cytotoxic, partial curve]"
same,Potency,[13],active: 13.3 µM
CCCCC1CCCCC(=O)O1 (configuration not stated),Potency,[1],inactive
same,Potency,[2],inactive
C=CC[N+](C)(C)CC=C,Potency,[1],"inconclusive [inhibitor, partial curve, poor fit]"
same,Potency,[2],inactive
Cc1ccc(/C(=C\CN2CCCC2)c2ccccn2)cc1,Potency,[1],"inconclusive [inhibitor, partial curve, poor fit]"
same,Potency,[2],"inconclusive [cytotoxic, partial curve, poor fit]"
same,Potency,[8],"inconclusive [cytotoxic, partial curve]"
same,Potency,[11],"inconclusive [cytotoxic, partial curve]"
CCC(C(=O)OCCN(CC)CC)c1ccccc1 (configuration not stated),Potency,[1],inactive
same,Potency,[6],inactive
same,Potency,[10],"inconclusive [cytotoxic, single point]"
Brc1ccccn1,Potency,[1],inactive
same,Potency,[2],inactive
NCCCOCCOCCOCCCN,Potency,[1],"inconclusive [inhibitor, full curve, poor fit]"
same,Potency,[6],"inconclusive [cytotoxic, partial curve]"
same,Potency,[9],"inconclusive [cytotoxic, full curve]"
same,Potency,[5],"inconclusive [rising, full curve]"
same,Potency,[10],active: 9.69 µM
same,Potency,[11],active: 8.63 µM
CCCCc1ccc2nc(NC(=O)OC)[nH]c2c1,Potency,[1],"inconclusive [inhibitor, full curve]"
same,Potency,[6],"inconclusive [cytotoxic, partial curve]"
same,Potency,[5],active: 4.22 µM
same,Potency,[10],"inconclusive [cytotoxic, full curve, poor fit]"
same,Potency,[11],"inconclusive [rising, partial curve]"
same,Potency,[14],inactive
C/C=C/C=C/CCCCCCCO,Potency,[1],"inconclusive [inhibitor, partial curve]"
same,Potency,[6],inactive
same,Potency,[8],inconclusive [cytotoxic]
same,"activity change, negative = inhibition",[5],inconclusive: -24.6%
same,Potency,[10],"inconclusive [rising, single point]"
same,Potency,[11],"inconclusive [rising, single point]"
N[C@@H](Cc1c[nH]c2ccc(O)cc12)C(=O)O,Potency,[1],"inconclusive [inhibitor, full curve]"
same,Potency,[2],"inconclusive [rising, single point]"
same,Potency,[4],"inconclusive [falling, single point]"
same,Potency,[11],"inconclusive [rising, partial curve]"
